Measurements reported in the supplement of paper PMC9151546.
Single values are uncertain, as repeats are few or missing.

Experiments:
CHO-K1 [1] = test: relative survival (nuclei to bead ratio vs DMSO control) (% of vehicle control); higher = more surviving cells
Experimental: (§1)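 Flow-cytometric in vitro micronucleus assay (Litron MicroFlow) in CHO-K1 cells in 96-well plates, 19 concentrations (4.5-200 µM, n=1 per concentration). Without S9, cells were exposed for 24 h and sampled at 48 h. With Aroclor 1254-induced rat liver S9, cells were exposed for 3-4 h and sampled at 27-28 h. Read-outs are %MN and %hypodiploid nuclei relative to nucleated events, and relative survival as the nuclei-to-bead ratio versus the 1% DMSO vehicle control (x100).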

CHO-K1 [2] = test: hypodiploid nuclei frequency (% of nucleated events); higher = more hypodiploid events (aneugenic)
Experimental: as §1

CHO-K1 [3] = test: micronucleus frequency (% of nucleated events); higher = more micronuclei (genotoxic)
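Wherever hypodiploid nuclei frequency (% of nucleated events) is given: hypodiploid nuclei gated on a flow cytometer with 488 nm excitation after SYTOX Green staining, cultures at 37 °C, positive controls vinblastine without S9 and cyclophosphamide with S9.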
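Wherever micronucleus frequency (% of nucleated events) is given: cells lysed with nuclei stained by SYTOX Green, then micronucleus-gated events counted against nucleated events by flow cytometry with 488 nm excitation.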
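Wherever relative survival (nuclei to bead ratio vs DMSO control) is given: Lysed-cell nuclei stained with SYTOX Green and counted against counting beads by flow cytometry at 488 nm excitation, with vinblastine (no S9) and cyclophosphamide (plus S9) as positive controls.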

Nc1cc(Cl)cc(C(=O)O)c1Cl [Chloramben]
Settings	hypodiploid nuclei frequency, CHO-K1 [2] [%]	micronucleus frequency, CHO-K1 [3] [%]	relative survival, CHO-K1 [1]
concentration: 4.5 (µM), S9 metabolic activation: with S9, exposure time: 3-4 hours	0.34	1.94	81.7
concentration: 4.5 (µM), S9 metabolic activation: without S9, exposure time: 24 hours	0.9	1.64	102
concentration: 5.63 (µM), S9 metabolic activation: with S9, exposure time: 3-4 hours	0.48	1.24	88.3
concentration: 5.63 (µM), S9 metabolic activation: without S9, exposure time: 24 hours	0.96	1.6	108
concentration: 7.04 (µM), S9 metabolic activation: with S9, exposure time: 3-4 hours	0.6	1.72	88.5
concentration: 7.04 (µM), S9 metabolic activation: without S9, exposure time: 24 hours	0.88	1.42	100
concentration: 8.8 (µM), S9 metabolic activation: with S9, exposure time: 3-4 hours	0.52	1.7	106
concentration: 8.8 (µM), S9 metabolic activation: without S9, exposure time: 24 hours	1.28	1.66	108
concentration: 11 (µM), S9 metabolic activation: with S9, exposure time: 3-4 hours	0.58	1.72	89.5
concentration: 11 (µM), S9 metabolic activation: without S9, exposure time: 24 hours	1.04	1.56	120
concentration: 13.7 (µM), S9 metabolic activation: with S9, exposure time: 3-4 hours	0.64	1.9	90.6
concentration: 13.7 (µM), S9 metabolic activation: without S9, exposure time: 24 hours	1	1.12	120
concentration: 17.2 (µM), S9 metabolic activation: with S9, exposure time: 3-4 hours	1.04	1.44	96.4
concentration: 17.2 (µM), S9 metabolic activation: without S9, exposure time: 24 hours	1.3	1.3	158
concentration: 21.5 (µM), S9 metabolic activation: with S9, exposure time: 3-4 hours	1.18	1.9	97.6
concentration: 21.5 (µM), S9 metabolic activation: without S9, exposure time: 24 hours	0.96	1.18	115
concentration: 26.8 (µM), S9 metabolic activation: with S9, exposure time: 3-4 hours	0.48	2.28	71.4
concentration: 26.8 (µM), S9 metabolic activation: without S9, exposure time: 24 hours	1.04	2.1	85.6
concentration: 33.6 (µM), S9 metabolic activation: with S9, exposure time: 3-4 hours	0.76	1.84	89.8
concentration: 33.6 (µM), S9 metabolic activation: without S9, exposure time: 24 hours	0.8	1.6	103
concentration: 41.9 (µM), S9 metabolic activation: with S9, exposure time: 3-4 hours	0.66	1.32	87.3
concentration: 41.9 (µM), S9 metabolic activation: without S9, exposure time: 24 hours	1	2.06	98.5
concentration: 52.4 (µM), S9 metabolic activation: with S9, exposure time: 3-4 hours	1.52	1.44	98.2
concentration: 52.4 (µM), S9 metabolic activation: without S9, exposure time: 24 hours	1.16	1.72	89.4
concentration: 65.5 (µM), S9 metabolic activation: with S9, exposure time: 3-4 hours	2.12	1.56	95.5
concentration: 65.5 (µM), S9 metabolic activation: without S9, exposure time: 24 hours	1.08	1.84	87.4
concentration: 81.9 (µM), S9 metabolic activation: with S9, exposure time: 3-4 hours	0.62	1.58	71.9
concentration: 81.9 (µM), S9 metabolic activation: without S9, exposure time: 24 hours	1.26	1.62	100
concentration: 102 (µM), S9 metabolic activation: with S9, exposure time: 3-4 hours	0.9	1.84	88.3
concentration: 102 (µM), S9 metabolic activation: without S9, exposure time: 24 hours	1.54	2.26	104
concentration: 128 (µM), S9 metabolic activation: with S9, exposure time: 3-4 hours	1.62	2.06	88.3
concentration: 128 (µM), S9 metabolic activation: without S9, exposure time: 24 hours	1.82	1.96	118
concentration: 160 (µM), S9 metabolic activation: with S9, exposure time: 3-4 hours	0.68	2.06	85.9
concentration: 160 (µM), S9 metabolic activation: without S9, exposure time: 24 hours	1.9	1.36	145
concentration: 200 (µM), S9 metabolic activation: with S9, exposure time: 3-4 hours	0.48	2.02	88.5
concentration: 200 (µM), S9 metabolic activation: without S9, exposure time: 24 hours	2.36	3.04	98.5
